Results: the antibiotic and cytotoxicity screens of Wong et al. (2023)
This is one part of the list.

Each compound was assayed on HSkMC (human skeletal muscle cells) (assay: cytotoxicity call (relative viability < 0.9)). Conditions: 10 µM.

Row | Compound | cytotoxicity call
1 | C[C@H]1CCCCO[C@H](CN(C)C(=O)Nc2ccc(F)cc2)[C@@H](C)CN([C@@H](C)CO)C(=O)c2cc(NC(=O)Cc3ccccc3)ccc2O1 | inactive
2 | C[C@@H]1CN([C@H](C)CO)C(=O)c2cc(N(C)C)ccc2O[C@@H]1CN(C)S(=O)(=O)c1ccc(Cl)cc1 | inactive
3 | COc1ccc(CN(C)C[C@@H]2OCCCC[C@H](C)Oc3ccc(NS(=O)(=O)c4ccc(Cl)cc4)cc3C(=O)N([C@@H](C)CO)C[C@H]2C)cc1 | inactive
4 | O=C(C[C@@H]1CC[C@@H]2[C@H](COC[C@H](O)CN2S(=O)(=O)c2cccc(F)c2)O1)NCc1ccc2c(c1)OCO2 | inactive
5 | C[C@H]1CN([C@@H](C)CO)C(=O)Cc2cc(NC(=O)CCCCCC(=O)Nc3ccccc3N)ccc2O[C@@H]1CN(C)C(=O)Nc1ccc(C(F)(F)F)cc1 | inactive
6 | COC(=O)CC1C(C)(C)C(=O)C2CC3C4=CC(=O)OC(c5ccoc5)C4(C)CCC3C1(C)C2=O (stereo unspecified) | inactive
7 | CCCNC(=O)N(C)C[C@@H]1Oc2ncc(-c3ccc(C(=O)N(C)C)cc3)cc2C(=O)N([C@@H](C)CO)C[C@H]1C | inactive
8 | C[C@@H](O)Cn1c(=N)n(C)c2ccccc21 | inactive
9 | Cc1ccc(C(C)C)c(O)c1 | inactive
10 | COc1ccc(NC(=O)Nc2cccc3c2O[C@@H](CN(C)Cc2ccc(C(=O)Nc4ccccc4N)cc2)[C@@H](C)CN([C@@H](C)CO)C3=O)cc1 | inactive
11 | C[C@@H]1CN([C@H](C)CO)C(=O)c2cc(NC(=O)Cn3cnnn3)ccc2O[C@H]1CN(C)Cc1ccc(-c2ccccc2)cc1 | inactive
